For the experiment, the target named is T1, CR/FNII domain of canine DEC205, GST fusion protein (canine).
T1 construct: Expressed in E. coli BL21 from pGEX4T1, purified on GSH matrix as a 45 kDa GST fusion; exact limits of the insert are uncertain; also called canine CR/FNII; CR/FNII N-Terminal domain; not shown: glutathione S-transferase (GST) fusion partner from expression vector pGEX4T1
T1 chain: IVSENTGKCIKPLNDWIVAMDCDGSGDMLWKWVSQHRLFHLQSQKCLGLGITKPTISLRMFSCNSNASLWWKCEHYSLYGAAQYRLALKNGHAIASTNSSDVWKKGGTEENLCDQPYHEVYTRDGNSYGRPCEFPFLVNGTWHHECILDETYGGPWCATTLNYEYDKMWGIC
Kind of experiment: SPR, Biacore 2000, CR/FNII immobilised on CM5 chip, ScFv-CS as analyte. (In SPR one partner is held on a chip, and binding of the other changes the refractive index at the surface.)

The Kd is the free concentration of one partner at which half of the binding sites on the other are occupied at equilibrium, for simple one-to-one binding. Low readings indicate higher affinity, high ones lower affinity. Usually koff stands for the first-order rate constant of dissociation. A high value points to a short-lived complex. A word on the kon: it is a measure of how fast the partners come together. Lower therefore signals slow association.

B1: ScFv-CS 83 (yeast library ScFv 83 fused to Core Streptavidin) (scFv)
chain: ASQVQLQQSGPGLVKPSQTLSLTCAISGDSVSSNSAAWNWLRQSPSGGLDWLGRTYYGSKWNNDYAASVKGRMTITPDTSKNQFSLQLNSVTPDDTAVYYCARTRGGYHYDYWGQGTLVTVSSGILGSGGGGSGGGGSGGGGSNFMLTQPHSVSQSPGETVTISCTGSSGSIASNFVQWYQQRPGTLPTTVIFDNDKRPSGVPDRVSGSVDSSSNSASLTISGLTAGDEADYYCQYCGNNVRVFGGGTQLTVLSGILEQKLISEEDL[about 120 residues omitted here]
notes: domain: Core Streptavidin; The insert was PCR amplified from the yeast display vector, so flanking residues may differ from the entry; Purified on DEAE-Sephacel; not shown: histidine tag
With B1, binding was put at a Kd of 0.2 nM. In other words, the sub-nanomolar range.

B2: ScFv-CS 92 (yeast library ScFv 92 fused to Core Streptavidin) (scFv)
chain: ASQVQLQQSGPGLVRPSQTLSLTCAISGDSVSRDTAAWNWVRQSPWGGLEWLGRTYYRSEWNTDYAVSLKSRMTITPDTSKSQFSLQLNSVTPEDTAVYYCARGWSGMDVWGHGTTVTVSAGSASAPTGILGSGGGGSGGGGSGGGGSEIVMTQSPGTPFLSPGERATLSCRASQSVSSNYSAWYQQKPGQAPRLVIYGASSRATGIPDRFSGSGSGTDFTLTISRLEPEDYAVYYCQQYGSSPLISFGQGTRLEIKSGILEQKLISEEDL[about 120 residues omitted here]
notes: as for B1
For the molecule B2, the affinity, expressed as Kd, was 0.08 nM; the koff was determined as 3.2e-05 s⁻¹; the kon turned out to be 660000 M⁻¹ s⁻¹.

B3: ScFv-CS 42 (yeast library ScFv 42 fused to Core Streptavidin) (scFv)
chain: ASQVQLQQSGPGLVKPSQTLSLTCAISGDSVSSNSAAWNWIRQSPSRGLEWLGRTYYRSKWYNDYAVSVKSRITIKPDTSKNQFSLQLNSVTPDDTAVYYCARSASYQEYLQSWGQGTLVTVSSGILGSGGGGSGGGGSGGGGSEIVLTQSPGTLSVSPGERATLSCRASQSVSRNLAWFQQKPGQAPRLLMYGASTRATGIPARFSGSGSGTEFTLTISSLQSEDFAAYYCQQYDQWPRTFGQGTKVEIKSGILEQKLISEEDL[about 120 residues omitted here]
notes: as for B1
The molecule B3 had a Kd of 1.2 nM.

B4: ScFv-CS 37 (yeast library ScFv 37 fused to Core Streptavidin) (scFv)
chain: ASQVQLQQSGPGLVKPSQTLSLTCAISGDSVSSNTAAWNWIRQSPWRGLEWLGRTYYRSQWNTDYAVSVKSRITINPDTSKNQFSLQLNSVTPEDTAVYYCARGWSGMDVWGQGTTVTVSSGSASAPTGIIGSGGGGSGGGGSGGGGSEIVMTQSPGTLSLSPGERATLSCRASQSVSSNYLAWYQQKPGQAPRLVIYGASSRASGIPDRFSGSGSGTDFTLTISRLEPEDFAVYYCQQYGSSHSIRFGQGTQLEIKSGILEQKLISEEDL[about 120 residues omitted here]
notes: as for B1
On to B4, for which the Kd stood at 1.1 nM.

These data come from US20200347138A1 (INDIAN INSTITUTE OF SCIENCE, published 2020).
